Measurements reported in the antibiotic and cytotoxicity screens of Wong et al. (2023).
This is one part of the list.

tested on: HepG2; assay: cytotoxicity call (relative viability < 0.9); conditions: 10 µM

Row | SMILES | cytotoxicity call
1 | O=C([O-])c1ccccc1O.[Na+] | inactive
2 | C[C@@H]1CN([C@@H](C)CO)C(=O)c2cc(NC(=O)Nc3ccccc3)ccc2O[C@@H]1CN(C)C(=O)Nc1ccc(C(F)(F)F)cc1 | inactive
3 | COc1ccc(S(=O)(=O)N(C)C[C@H]2Oc3c(NS(=O)(=O)c4c(C)noc4C)cccc3C(=O)N([C@@H](C)CO)C[C@@H]2C)cc1 | inactive
4 | COc1ccc(CN(C)C[C@@H]2OCCCC[C@H](C)Oc3ccc(NC(=O)c4ccncc4)cc3C(=O)N([C@H](C)CO)C[C@@H]2C)cc1 | inactive
5 | Cc1ccc(S(=O)(=O)N(C)C[C@@H]2Oc3ccc(NC(=O)CCN4CCOCC4)cc3CC(=O)N([C@@H](C)CO)C[C@@H]2C)cc1 | inactive
6 | C=C1OC(=O)C2=C1O[C@H](/C=C/C)[C@@H](O)[C@@H]2O | inactive
7 | C[C@H](CO)N1C[C@H](C)[C@@H](CN(C)C(=O)c2ccccc2)Oc2cc(C#CC3(O)CCCC3)ccc2S1(=O)=O | inactive
8 | CN1CCN(C(=O)C[C@@H]2CC[C@@H](NC(=O)c3ccc4c(c3)OCO4)[C@H](CO)O2)CC1 | inactive
9 | C[C@H]1CCCCO[C@H](CN(C)C(=O)Nc2ccc(C(F)(F)F)cc2)[C@@H](C)CN([C@@H](C)CO)C(=O)c2cc(NS(=O)(=O)c3ccc(F)cc3)ccc2O1 | active
10 | CNC(=O)Cn1cc(N)cn1 | inactive
11 | Cn1nc(Cn2ccnc2)c2c1CN(CCO)C2 | inactive

tested on: S. aureus RN4220; assay: growth inhibition call (relative growth <= 0.2); conditions: 50 µM

Row | SMILES | growth inhibition call
12 | Cn1c(=O)c2c(ncn2CC(=O)N2CCN(C(=O)c3ccco3)CC2)n(C)c1=O | inactive
13 | NCCCN | inactive
14 | C[C@H](CO)N1C[C@H](C)[C@@H](CN(C)C(=O)Nc2cccc3ccccc23)OCCCC[C@H](C)Oc2ccc(NC(=O)C3CCCCC3)cc2C1=O | inactive
15 | COCCOC(=O)N1C(=O)[C@@]2(c3cc(C#CCC(C(=O)OC)C(=O)OC)ccc31)[C@H](C(=O)N1CCc3cc(OC)c(OC)cc3C1)[C@H]1C(=O)O[C@H](c3ccccc3)[C@H](c3ccccc3)N1[C@@H]2c1ccc(O)cc1 | inactive
16 | O=C(C[C@@H]1CC=CCC[C@H](Cc2ccc(F)cc2)C(=O)OC[C@@H](Cc2c[nH]c3ccccc23)NC1=O)N[C@@H](CO)Cc1ccccc1 | inactive
17 | COc1ccc(NC(=O)Nc2ccc3c(c2)C(=O)N([C@H](C)CO)C[C@H](C)[C@@H](CN(C)S(=O)(=O)c2ccc(OC)cc2)OCCCC[C@H](C)O3)cc1 | inactive
18 | C[C@H](CO)N1C[C@H](C)[C@@H](CN(C)C(=O)Nc2cccc3ccccc23)Oc2ccc(NS(=O)(=O)c3ccc(F)cc3)cc2C1=O | inactive
19 | C[C@H](CO)N1C[C@H](C)[C@@H](CN(C)C(=O)Nc2ccc(C(F)(F)F)cc2)OCCCC[C@H](C)Oc2ccc(NC(=O)Nc3ccccc3)cc2C1=O | inactive
20 | C[C@@H]1CCCCO[C@H](CN(C)S(=O)(=O)c2ccccc2)[C@H](C)CN([C@@H](C)CO)C(=O)c2cc(NC(=O)C3CCCCC3)ccc2O1 | inactive
21 | CCCC(=O)Nc1nc2[nH]c(C)cc(=O)n2n1 | inactive
22 | C[C@@H]1CN([C@H](C)CO)C(=O)c2cccc(NC(=O)C3CCOCC3)c2O[C@H]1CN(C)Cc1ccc(C(=O)O)cc1 | inactive
23 | Cc1noc(C)c1NC(=O)N[C@@H]1CC[C@@H](CC(=O)N2CCN(C)CC2)O[C@H]1CO | inactive
24 | COC(=O)[C@@H](N)Cc1ccc(-n2cc(CCC(=O)NO)nn2)cc1 | active
25 | CCOC(=O)N1CCN(C(=O)C2CCN(S(=O)(=O)N(CC)CC)CC2)CC1 | inactive
26 | COc1ccc(NC(=O)Nc2cccc3c2O[C@@H](CN(C)S(=O)(=O)c2cn(C)cn2)[C@@H](C)CN([C@H](C)CO)C3=O)cc1 | inactive
27 | COc1ccc(CN(C)C[C@H]2OCCCC[C@H](C)Oc3ccc(NS(=O)(=O)c4ccc(Cl)cc4)cc3C(=O)N([C@@H](C)CO)C[C@@H]2C)cc1 | inactive
28 | C[C@H]1CN([C@@H](C)CO)C(=O)c2cc(NS(=O)(=O)c3ccc(F)cc3)ccc2O[C@H]1CN(C)C(=O)Nc1ccc(C(F)(F)F)cc1 | inactive
29 | O=C(N[C@H]1CC=CC[C@H](CC(=O)N(CCO)Cc2ccccc2)C(=O)N[C@@H](Cc2ccccc2)COC1=O)OCC1c2ccccc2-c2ccccc21 | inactive
30 | C[C@@H]1CCCCO[C@@H](CN(C)CC2CC2)[C@H](C)CN([C@H](C)CO)C(=O)c2cc(NC(=O)Nc3ccccc3)ccc2O1 | inactive
31 | C[C@H]1CN([C@@H](C)CO)C(=O)Cc2cc(NS(=O)(=O)c3cn(C)cn3)ccc2O[C@H]1CN(C)Cc1ccc(C(=O)O)cc1 | inactive
